# In a collection of fitness landscapes (doi:10.1016/j.celrep.2020.107928):
# Over roughly 81,000 sequences, “one-hybrid fitness for binding NBS DNA” has its median near -0.1; the highest 2% begin near 0.36. Some of the results follow.
# B1: Caulobacter ParB omega fusion; a variant is named by its letters at X, in order, B8GW30 (parent)
# chain: MESVVVGEPGMSEGRRGLGRGLSALLGEVDAAPAQAPGEQLGGSREAPIEILQRNPDQPRRTFREEDLEDLSNSIREKGVLQPILVRPSPDTAGEYQIVAGERAWRAAQRAGLKTVPIMVRELDDLAVLEIGIIENVQRADLNVLEEALSYKVLMEKFERTQENIAQTIGKSXSHVANXMRLLXLPDEVQSYLVSGELTAXHARAIAAAADPVALAKQIIEGGLSVRETEALARKAPNLSAGKSKGGRPPRVKDTDTQALESDLSSVLGLDVSIDHRGSTGTLTITYATLEQLDDLCNRLTRGI
# Variants of: B1
# Assay: one-hybrid fitness for binding NBS DNA (the Noc-binding site; scaled: cognate 1, non-cognate 0); higher = stronger binding
# Conditions: with NBS DNA site
# In short: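 On M9-minus-histidine containing 0.1 mM IPTG and 5 mM 3-AT, E. coli USO cells with a HIS3 reporter, site 19 bp from the promoter, grew 48 hours at 37°C to select Caulobacter ParB libraries randomised at four specificity codons. Plasmids from before and after were Illumina-sequenced, with three replicate libraries pooled and variants under 10 reads left out. Fitness is the log change in variant-to-wild-type read ratio, rescaled against cognate and non-cognate.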
row,Variant,one-hybrid fitness for binding NBS DNA
1,TFMR,≤ 0.2
2,TVFS,≤ 0.2
3,YSCS,≤ 0.2
4,GCEC,≤ 0.2
5,GWNT,≤ 0.2
6,RENG,≤ 0.2
7,RIQG,≤ 0.2
8,LECR,≤ 0.2
9,FSCG,≤ 0.2
10,PQAT,≤ 0.2
11,PKQP,≤ 0.2
12,QWWW,≤ 0.2
13,QEAS,≤ 0.2
14,MHMG,≤ 0.2
15,FLKM,≤ 0.2
16,QMQF,≤ 0.2
17,HGGR,≤ 0.2
18,LTIV,≤ 0.2
19,PRMV,≤ 0.2
20,MRTE,≤ 0.2
21,LAYC,≤ 0.2
22,LASP,≤ 0.2
23,RHHT,0.419
24,GESR,≤ 0.2

row,Variant,one-hybrid fitness for binding NBS DNA
1,GHPR,≤ 0.2
2,PAPG,≤ 0.2
3,HMHS,≤ 0.2
4,QTYI,≤ 0.2
5,TVQS,≤ 0.2
6,TFDE,≤ 0.2
7,KNCL,≤ 0.2
8,SRWS,≤ 0.2
9,PANQ,≤ 0.2
10,SYAE,≤ 0.2
11,ILHV,≤ 0.2
12,PHGV,≤ 0.2
13,KARV,≤ 0.2
14,LPNF,≤ 0.2
15,PQCY,≤ 0.2
16,HLLE,≤ 0.2
17,QHLS,0.261
18,KVQL,≤ 0.2
19,FTHR,≤ 0.2
20,ITCY,≤ 0.2
21,LTHM,≤ 0.2
22,GMGV,≤ 0.2
23,LMGE,≤ 0.2
24,NVPN,≤ 0.2

row,Variant,one-hybrid fitness for binding NBS DNA
1,RCQD,≤ 0.2
2,KWQS,≤ 0.2
3,VFKY,≤ 0.2
4,CRSA,≤ 0.2
5,DHTR,≤ 0.2
6,AYDS,≤ 0.2
7,KYRD,≤ 0.2
8,PHEG,≤ 0.2
9,ANIG,≤ 0.2
10,LEQG,≤ 0.2
11,KRFS,0.358
12,PTHP,≤ 0.2
13,AWLM,≤ 0.2
14,WEHS,≤ 0.2
15,RTYI,≤ 0.2
16,LIML,≤ 0.2
17,RDWL,≤ 0.2
18,TPRA,≤ 0.2
19,RQID,≤ 0.2
20,PNKS,≤ 0.2
21,TYEP,≤ 0.2
22,LMML,≤ 0.2
23,VNDI,≤ 0.2
24,DGHR,≤ 0.2

row,Variant,one-hybrid fitness for binding NBS DNA
1,GNSG,≤ 0.2
2,SVQV,≤ 0.2
3,LSVK,≤ 0.2
4,EMAV,≤ 0.2
5,ACKP,≤ 0.2
6,SGTS,≤ 0.2
7,RNNV,≤ 0.2
8,VTTI,≤ 0.2
9,SVPC,≤ 0.2
10,RNFN,≤ 0.2
11,CGPR,≤ 0.2
12,SFSE,≤ 0.2
13,RVYL,≤ 0.2
14,PDAG,≤ 0.2
15,CAQC,≤ 0.2
16,MWQL,≤ 0.2
17,EKLF,≤ 0.2
18,IFLS,≤ 0.2
19,QDLG,≤ 0.2
20,PAMM,≤ 0.2
21,QAQI,≤ 0.2
22,WGTP,≤ 0.2
23,DHST,≤ 0.2
24,LVLW,≤ 0.2

row,Variant,one-hybrid fitness for binding NBS DNA
1,ELKN,≤ 0.2
2,DVPW,≤ 0.2
3,LMFV,≤ 0.2
4,HNVG,≤ 0.2
5,FLVE,≤ 0.2
6,IKDR,≤ 0.2
7,NSCC,≤ 0.2
8,RRQH,0.447
9,VHKI,≤ 0.2
10,TTDQ,≤ 0.2
11,MNTQ,≤ 0.2
12,DRDT,≤ 0.2
13,CARF,≤ 0.2
14,NPWD,≤ 0.2
15,GTAT,≤ 0.2
16,LKQC,≤ 0.2
17,WNLV,≤ 0.2
18,ATCT,≤ 0.2
19,SSKK,≤ 0.2
20,YPNR,≤ 0.2
21,DRMN,≤ 0.2
22,AWSI,≤ 0.2
23,WRLA,≤ 0.2
24,HALR,≤ 0.2

row,Variant,one-hybrid fitness for binding NBS DNA
1,LSVL,≤ 0.2
2,QSWE,≤ 0.2
3,HYGY,≤ 0.2
4,WTFA,≤ 0.2
5,DYCC,≤ 0.2
6,TRAM,≤ 0.2
7,DELG,≤ 0.2
8,AFDM,≤ 0.2
9,RRHW,≤ 0.2
10,APDE,≤ 0.2
11,HSHG,≤ 0.2
12,TAKE,≤ 0.2
13,WMMC,≤ 0.2
14,ARNH,≤ 0.2
15,RRER,0.629
16,QGGK,≤ 0.2
17,DYDG,≤ 0.2
18,QQKG,0.437
19,CKIS,≤ 0.2
20,AEAS,≤ 0.2
21,NYFG,≤ 0.2
22,TFKD,≤ 0.2
23,KLDC,≤ 0.2
24,MKYF,0.356

row,Variant,one-hybrid fitness for binding NBS DNA
1,HTIK,≤ 0.2
2,LGAT,≤ 0.2
3,KSMA,≤ 0.2
4,VILR,≤ 0.2
5,QLWG,≤ 0.2
6,TRFQ,≤ 0.2
7,TAKV,≤ 0.2
8,VGTM,≤ 0.2
9,PRAW,≤ 0.2
10,LLPS,≤ 0.2
11,HMVF,≤ 0.2
12,IVAC,≤ 0.2
13,HLKI,≤ 0.2
14,NGAR,≤ 0.2
15,LWEG,≤ 0.2
16,APKV,≤ 0.2
17,RKGW,≤ 0.2
18,HLKR,≤ 0.2
19,SKVT,≤ 0.2
20,QAHL,≤ 0.2
21,KMMC,≤ 0.2
22,GHCT,≤ 0.2
23,FWRM,≤ 0.2
24,VDQE,≤ 0.2

row,Variant,one-hybrid fitness for binding NBS DNA
1,VQWG,≤ 0.2
2,RHPQ,≤ 0.2
3,YEEA,≤ 0.2
4,GMHC,≤ 0.2
5,SFSG,≤ 0.2
6,HFRV,≤ 0.2
7,KFAV,≤ 0.2
8,GLIR,≤ 0.2
9,QVVS,≤ 0.2
10,ARPI,≤ 0.2
11,KMSR,≤ 0.2
12,AENS,≤ 0.2
13,LTHA,≤ 0.2
14,RLWA,≤ 0.2
15,ESSE,≤ 0.2
16,MCHL,≤ 0.2
17,ANFR,≤ 0.2
18,KNLR,≤ 0.2
19,VEDV,≤ 0.2
20,AVPF,≤ 0.2
21,QCWT,0.461
22,QCHA,0.422
23,SFWQ,≤ 0.2
24,SHGT,≤ 0.2

row,Variant,one-hybrid fitness for binding NBS DNA
1,REMH,≤ 0.2
2,TQIY,≤ 0.2
3,GGDR,≤ 0.2
4,IYMS,≤ 0.2
5,AYIG,≤ 0.2
6,ATDL,≤ 0.2
7,RLKN,≤ 0.2
8,YTRF,≤ 0.2
9,TMDS,≤ 0.2
10,SDVL,≤ 0.2
11,DIND,≤ 0.2
12,YGVW,≤ 0.2
13,QDTN,≤ 0.2
14,VWLT,≤ 0.2
15,SPFM,≤ 0.2
16,IWKT,≤ 0.2
17,QTQT,0.577
18,RTRL,≤ 0.2
19,QWKC,≤ 0.2
20,HICC,≤ 0.2
21,RAGK,≤ 0.2
22,QKII,≤ 0.2
23,PNMC,≤ 0.2
24,ASNI,≤ 0.2

row,Variant,one-hybrid fitness for binding NBS DNA
1,TWFT,≤ 0.2
2,MDFR,≤ 0.2
3,PYAL,≤ 0.2
4,CGHC,≤ 0.2
5,PAML,≤ 0.2
6,RNMV,≤ 0.2
7,NVGG,≤ 0.2
8,TKTC,≤ 0.2
9,SNSD,≤ 0.2
10,LTKP,≤ 0.2
11,RKYG,≤ 0.2
12,EKRC,≤ 0.2
13,GFIS,≤ 0.2
14,HPVE,≤ 0.2
15,QCGA,0.364
16,ATIV,≤ 0.2
17,GPSC,≤ 0.2
18,LNNR,≤ 0.2
19,SNPA,≤ 0.2
20,RQTV,≤ 0.2
21,SGQH,≤ 0.2
22,RRAD,≤ 0.2
23,TPPT,≤ 0.2
24,KRTS,0.448

row,Variant,one-hybrid fitness for binding NBS DNA
1,KKKK,≤ 0.2
2,TVYC,≤ 0.2
3,QNST,≤ 0.2
4,LDLI,≤ 0.2
5,FDHL,≤ 0.2
6,HSYD,≤ 0.2
7,RGKM,≤ 0.2
8,HSTK,≤ 0.2
9,TTGT,≤ 0.2
10,EELL,≤ 0.2
11,RAYR,0.412
12,KSCC,≤ 0.2
13,HSFC,≤ 0.2
14,RLPW,≤ 0.2
15,RRHE,≤ 0.2
16,THHG,≤ 0.2
17,CNKR,≤ 0.2
18,EVPA,≤ 0.2
19,EAKR,0.3
20,ICWS,≤ 0.2
21,RASM,≤ 0.2
22,NVVG,≤ 0.2
23,SHHR,≤ 0.2
24,LMMM,≤ 0.2

row,Variant,one-hybrid fitness for binding NBS DNA
1,CMGL,≤ 0.2
2,IINT,≤ 0.2
3,RQYK,≤ 0.2
4,HMVG,≤ 0.2
5,RWQD,≤ 0.2
6,RRAK,0.254
7,QKCW,≤ 0.2
8,FADA,≤ 0.2
9,KASP,≤ 0.2
10,RIIQ,≤ 0.2
11,IGTS,≤ 0.2
12,RCDF,≤ 0.2
13,RVGC,≤ 0.2
14,LKNT,≤ 0.2
15,LEPL,≤ 0.2
16,SQPL,≤ 0.2
17,THNL,≤ 0.2
18,RKAF,≤ 0.2
19,ELRE,≤ 0.2
20,IWLS,≤ 0.2
21,GHVD,≤ 0.2
22,QPHW,≤ 0.2
23,SADL,≤ 0.2
24,FQLG,≤ 0.2

row,Variant,one-hybrid fitness for binding NBS DNA
1,DLCR,≤ 0.2
2,ANTS,≤ 0.2
3,NPPR,0.218
4,GTQT,≤ 0.2
5,PCEL,≤ 0.2
6,KCDS,≤ 0.2
7,CHYD,≤ 0.2
8,AADF,≤ 0.2
9,QQCT,0.528
10,PLVD,≤ 0.2
11,MRYT,≤ 0.2
12,SFRC,≤ 0.2
13,RRRI,0.451
14,CWLR,≤ 0.2
15,KAPS,≤ 0.2
16,HASR,≤ 0.2
17,WLKR,≤ 0.2
18,ELTI,≤ 0.2
